Experimental data: PubChem BioAssay AID485281 (National Center for Advancing Translational Sciences (NCATS), 2010)
Hit rate of the full screen: of about 350,000 compounds, about 260 (0.074%) were called active. This list was built around the results that the source calls inconclusive (neither active nor inactive); the mix of calls is not that of the screen. Calls come from the whole dose curve; as a rule, active = well fitted inhibition curve with a large enough effect; inconclusive = small, poorly fitted or top-dose-only effect; inactive = no such curve, though single readings can be large or run the other way. Potencies beside an inconclusive call are fits to weak or partial responses and may not hold up.

Target: Ferritin light chain (Equus caballus) (UniProt P02791)
UniProt P02791, sequence (P02791 whole entry, looked up): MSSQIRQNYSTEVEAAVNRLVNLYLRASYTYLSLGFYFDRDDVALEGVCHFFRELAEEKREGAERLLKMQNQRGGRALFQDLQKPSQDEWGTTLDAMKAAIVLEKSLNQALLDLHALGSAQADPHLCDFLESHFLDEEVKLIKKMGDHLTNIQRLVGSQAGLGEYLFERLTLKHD
Assay: qHTS Assay for Identification of Novel General Anesthetics; note: nearly all actives have a fitted effect of over 20% in size
Details: apoferritin/1-aminoanthracene competitive binding, fluorescence; series mostly up to 77.5 µM
How it was run: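 Horse-spleen apoferritin (10 uM) was mixed with 50% saturated 1-aminoanthracene in PBS, exposed to compounds for 10 min at room temperature, and read for fluorescence (ex 380 nm, em 535 nm). Competitive displacement was fitted with a four-parameter Hill equation.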
Potency is the fitted concentration of half-maximal effect; tags give direction and shape of the fitted curve.

Structure (SMILES) | Potency
CCCCN(CC)CCCNC(=O)c1ccc2c(c1)N(Cc1ccc(C)cc1)C(=O)c1ccccc1S2 | inconclusive: 8.91 µM [inhibitor, partial curve]
O=C(CS(=O)(=O)c1cccc2nsnc12)N1CCN(c2ccc(F)cc2)CC1 | inconclusive: 39.8 µM [inhibitor, partial curve]
O=S(=O)(c1ccc(NC(=S)Nc2ccccc2)cc1)N1CCOCC1 | inactive
CN1C(=O)/C(=C\c2cc(Br)cs2)c2ccccc21 | inconclusive: 14.1 µM [inhibitor, partial curve]
COc1cc(C(=O)Nc2ccc(NC(=O)C3CC3)nc2)cc(OC)c1OC | inconclusive: 44.7 µM [inhibitor, single point]
Cc1nc(N2CCN(c3ccccn3)CC2)c2c(C)c(C(=O)Nc3ccc(Br)cc3C)sc2n1 | inactive
O=C1C=C(Nc2ccc(Cl)cc2)CC(c2ccc(Cl)cc2)C1 (stereo not drawn) | inconclusive: 28.2 µM [inhibitor, partial curve]
CC(C)(C)S(=O)(=O)/C(C#N)=N/Nc1ccc(Cl)cc1 | inconclusive: 44.7 µM [inhibitor, single point]
Cc1cc(C)n(-c2ccc(C(=O)OCC(=O)N(CC(C)C)C3CCS(=O)(=O)C3)cc2)n1 (stereo not drawn) | inconclusive: 31.6 µM [inhibitor, single point]
CCCn1c(=S)[nH]c2cc(C(=O)N(CCO)Cc3ccccc3)ccc2c1=O | inconclusive: 35.5 µM [inhibitor, partial curve]
O=C(CC12CC3CC(CC(C3)C1)C2)NCC(=O)N1CCc2ccccc2C1 | inconclusive: 31.6 µM [inhibitor, partial curve]
Cc1cc(C)n(C(=O)CN2C(=O)COc3ccccc32)n1 | inconclusive: 11.2 µM [inhibitor, partial curve, poor fit]
C=CCn1c(=O)c2c3c(sc2n2c(Nc4ccc(OC)cc4)nnc12)CCCC3 | inconclusive: 17.8 µM [inhibitor, partial curve]
COc1cccc(CCNc2ccc(N3C(=O)CC(C)C3=O)cc2[N+](=O)[O-])c1 (stereo not drawn) | inconclusive: 12.6 µM [inhibitor, partial curve]
Cc1ccc(Oc2cc([N+](=O)[O-])cc3c2C(=O)Nc2ccccc2O3)cc1 | inconclusive: 12.6 µM [inhibitor, partial curve]
COc1cccc(/C=N/Nc2nn3cnnc3c3ccccc23)c1 | inactive
Cc1ccc2nsnc2c1S(=O)(=O)Nc1cccc2cccnc12 | inactive
CCCOC1CCCN(C(=O)c2cc(COc3cncc(Cl)c3)on2)C1 (stereo not drawn) | inconclusive: 28.2 µM [inhibitor, partial curve]
O=C(Cn1nc(-c2ccc(F)cc2)ccc1=O)Nc1ccc(C(=O)NC2CC2)cc1 | inconclusive: 35.5 µM [inhibitor, single point]
CC1Cc2ccccc2N1C(=O)CSc1ncccc1C(=O)O (stereo not drawn) | inconclusive: 31.6 µM [inhibitor, partial curve]
COc1ccc(C(C)NC(=O)CN(c2cc(OC)ccc2OC)S(=O)(=O)c2ccccc2)cc1 (stereo not drawn) | inactive
Cc1ccc(CNC(=O)C2CCCN(c3nc4ccccc4n4cccc34)C2)cc1 (stereo not drawn) | inactive

Structure (SMILES) | Potency
CCN(CC)c1ccc2c(C)c(CN3CCOCC3)c(=O)oc2c1 | inactive
CCN1CCCC1CNC(=O)c1cc2c(-c3ccc(Cl)cc3)nn(C)c2s1 (stereo not drawn) | inactive
COCCn1c(CNC(=O)c2ccccc2C)nc2cccnc21 | inactive
Cc1ccc(C)c(CN2CCC(CNC(=O)C(CC(C)C)N3Cc4ccccc4C3=O)CC2)c1 (stereo not drawn) | inconclusive: 2.82 µM [inhibitor, full curve, poor fit]
CSc1ccc(/C=C/C(=O)NC23CC4CC(CC(C4)C2)C3)cc1 | inconclusive: 14.1 µM [inhibitor, partial curve]
COc1ccc(-n2c(CC3C(=O)Nc4ccc(C)cc43)nc3ccccc3c2=O)cc1 (stereo not drawn) | inconclusive: 35.5 µM [inhibitor, single point]
COc1cc(CNCCO)ccc1OCCc1ccccc1 | inconclusive: 14.1 µM [inhibitor, partial curve]
CC(C)COC(=S)Nc1ccccc1 | inconclusive: 14.1 µM [inhibitor, partial curve]
C=C(C)C(O)/C=C/CCCCCCC (stereo not drawn) | inconclusive: 6.31 µM [inhibitor, single point]
N#CC1=C2SCN(c3ccccc3)CN2C(=O)CC1c1ccccc1Cl (stereo not drawn) | inconclusive: 50.1 µM [inhibitor, single point]
CC(C)(C)OC(=O)[C@H](Cc1ccccc1)NC(=O)c1[nH]cnc1C(=O)Nc1ccc(Cl)cc1 | inconclusive: 10 µM [inhibitor, partial curve]
CCCN(CC1CC1)C(=O)Nc1ccccc1C | inconclusive: 15.8 µM [inhibitor, partial curve]
COc1ccc([C@@H]2C(C#N)=C(N)S[C@@H](c3ccccc3)[C@@H]2[N+](=O)[O-])cc1 | inactive
Cc1ccc(N=Nc2ccc(O)c3ncccc23)cc1C | inactive
CCOC(=O)c1c(S(=O)(=O)NCC(=O)Nc2cccc(SC)c2)c(C)n(C)c1C | inconclusive: 25.1 µM [inhibitor, single point]
CC1(C)C(=O)N(c2ccccc2Cl)C(=O)c2ccccc21 | inconclusive: 11.2 µM [inhibitor, partial curve]
CC(C)C(=O)Nc1nnc(SCc2cccc(F)c2)s1 | inconclusive: 28.2 µM [inhibitor, partial curve]
COC(=O)c1[nH]c2cccc(OC)c2c1NC(=O)CCN1CCC(C)CC1 | inactive
Cc1ccc(-c2cc(C(=O)N3N=C(C(F)F)CC3(O)C(F)F)c3ccccc3n2)cc1C (stereo not drawn) | inconclusive: 7.94 µM [inhibitor, partial curve]
CCOC(=O)C(C(=O)OCC)C(C)(C)/C(C)=N\Nc1ccc([N+](=O)[O-])cc1[N+](=O)[O-] | inconclusive: 31.6 µM [inhibitor, partial curve]
CCc1cccc(NC(=O)Cn2c(=O)n(CC3CCC(C(=O)NC)CC3)c(=O)c3sccc32)c1 (stereo not drawn) | inconclusive: 56.2 µM [inhibitor, single point]
